Where a chain is given by its changes, count along the chain named.
B1: huAbF46-H4-A1: affinity-matured huAbF46 IgG with L3-1-derived CDR-L3 (SEQ ID NO: 13), U6-HC7 hinge (antibody)
heavy: EVQLVESGGGLVQPGGSLRLSCAASGFTFTDYYMSWVRQAPGKGLEWLGFIRNKANGYTTEYSASVKGRFTISRDNSKNTLYLQMNSLRAEDTAVYYCARDNWFAYWGQGTLVTVSSASTKGPSVFPLAPSSKSTSGGTAALGCLVKDYFPEPVTVSWNSGALTSGVHTFPAVLQSSGLYSLSSVVTVPSSSLGTQTYICNVNHKPSNTKVDKKVEPKSCDCH[sequence of human IgG1 Fc omitted]
light: DIQMTQSPSSLSASVGDRVTITCKSSQSLLASGNQNNYLAWHQQKPGKAPKMLIIWASTRVSGVPSRFSGSGSGTDFTLTISSLQPEDFATYYCQQSYSRPYTFGQGTKVEIKRTVAAPSVFIFPPSDEQLKSGTASVVCLLNNFYPREAKVQWKVDNALQSGNSQESVTEQDSKDSTYSLSSTLTLSKADYEKHKVYACEVTHQGLSSPVTKSFNRGEC
B2: huAbF46-H4-A2: affinity-matured huAbF46 IgG with L3-2-derived CDR-L3 (SEQ ID NO: 14), U6-HC7 hinge (antibody)
heavy: B1 heavy
light: B1 light with Q95G, Y102L
B3: huAbF46-H4-A5: affinity-matured huAbF46 IgG with L3-5-derived CDR-L3 (SEQ ID NO: 16), U6-HC7 hinge (antibody)
heavy: B1 heavy
light: B1 light with Y102F
B4: huAbF46-H4-A3: affinity-matured huAbF46 IgG with L3-3-derived CDR-L3 (SEQ ID NO: 15), U6-HC7 hinge (antibody)
heavy: B1 heavy
light: B1 light with Q95A, R100H, Y102F, T103S

Assays:
[1] = tested on: MKN45 gastric cancer cells; assay: In vitro cell proliferation analysis (CellTiter-Glo); format: cell-based, human; settings: 0.008 ug/ml, 72 hours
Protocol: In order to identify anti-cancer effects of the 4 types of antibodies having improved affinities, as prepared in Example 5, in vitro cell proliferation analysis was performed using MKN45 gastric cancer cells on which c-Met is expressed (Japanese Cancer Research Bank, JCRB, Tokyo, Japan).
(§1) 1×10^4 MKN45 cells suspended in 50 ul of 5% (w/v) FBS/DMEM culture medium were introduced to each well of a 96-well plate. Then, the cells were either not treated or were treated with 50 ul of the 4 types of antibodies at a concentration of 0.008, 0.04, 0.2, or 1 ug/ml. After incubating for 72 hours, the number of cells was quantified by using a CellTiter-Glo Luminescent Cell Viability Assay Kit (Promega, G7570) with a leuminometer (PerkinElmer, 2104 Multilabel reader).
In order to identify anti-cancer effects of the three types of antibodies prepared in Example 11, in vitro cell proliferation analysis was performed using MKN45 gastric cancer cells having c-Met on the cell membrane (Japanese Cancer Research Bank, JCRB, Tokyo, Japan).
as §1, with “the 3” for “the 4”

[2] = tested on: Akt; assay: Akt phosphorylation in Caki-1 cells (phospho-AKT1 Ser473 ELISA); format: cell-based; settings: 5 ug/ml, 30 minutes; for degree of Akt phosphorylation: serum free, 5D5 = 100%
Protocol: (§2) To compare agonism of the 4 types of antibodies having improved affinities, as prepared in Example 5, Caki-1 cells (Korean Cell Line Bank) were used to confirm the degree of Akt phosphorylation. Mouse IgG was used as a negative control, and antibody 5D5 (a known agonist) was used as a positive control.
(§3) 2×10^5 cells/ml of Caki-1 cells were introduced to a 96-well plate, and after 24 hours, each of 5 ug/ml of the antibodies was treated in serum free medium for 30 minutes. Lysis of the cells treated with the antibodies was performed and the degree of Akt phosphorylation was measured using a PathScan phospho-AKT1 (Ser473) chemiluminescent Sandwich ELISA kit (Cell Signaling, cat. no #7134S).
as §2, with “3” for “4”, “11,” for “5,”, “and a 5D5” for “and”, “antibody” for “antibody 5D5”
as §3, with “with” for “with the”, “and a” for “and the”, “phosphorylation inhibition” for “phosphorylation”, “(Ser473) a” for “(Ser473)”

[3] = tested on: U87MG brain cancer cells; assay: U87MG brain cancer mouse xenograft model; format: in vivo, BALB/C nude mice; settings: 0.2 mg/kg-10 mg/kg, every 10 days, 3 doses
Protocol: (§4) In order to identify anti-cancer effects of the 4 types of antibodies having improved affinities, as prepared in Example 5, a decrease in the size of tumor cells in a brain cancer or gastric cancer mouse xenograft model transplanted with U87MG brain cancer cells (Korean Cell Line Bank) or MKN45 gastric cancer cells (Japanese Cancer Research Bank, JCRB, Tokyo, Japan) was observed when the antibodies having improved affinities were administered thereto in vivo.
(§5) For MKN45 model (FIG. 6A), 5×10^6 MKN45 cells (100 uL) were administered via subcutaneous injection to 6 week-old male BALB/C nude mice (SLAC Laboratories, Shanghai, China). For U87MG model (FIG. 6B), 2.5×10^6 U87MG cells were administered. One wee after the tumor inoculation, the mice were randomized into Vehicle (PBS) or huAbF46-H4-A1 treatment groups at a various doses (0.2 mg/kg-10 mg/kg). Each group consisted of 15 mice. For MKN45 model, each treatment was given once a week via intravenous route, for total of 4 doses. For U87MG model, the treatment was given every 10 days for total of 3 doses. […]

[4] = tested on: MKN45 gastric cancer cells; assay: MKN45 gastric cancer mouse xenograft model; format: in vivo, BALB/C nude mice; settings: 0.2 mg/kg-10 mg/kg, once a week intravenous, 4 doses
Protocol: as §4, §5

[5] = biological target: T1, c-Met (Homo sapiens, UniProt P08581); assay: Degree of degradation of c-Met in MKN45 cells (total c-Met ELISA); format: cell-based; parameters: MKN45 gastric cancer cells on which c-Met is expressed; endogenous in cells; host or cells: MKN45 gastric cancer cells (JCRB); settings: 5 ug/ml, 24 hours
Protocol: In order to identify anti-cancer effects of the 4 types of antibodies having improved affinities, as prepared in Example 5, the degree of degradation of c-Met bound to the antibodies was evaluated. A relative total amount of c-Met was obtained by measuring the change in the total amount of c-Met after the antibody binds to c-Met to degrade c-Met via internalization, and thus the efficacy of the antibody was evaluated.
(§6) MKN45 cells (2×10^5 cells/ml) and each of the antibodies (5 ug/ml) were simultaneously introduced to a 96-well plate and incubated for 24 hours. Then, lysis of the cells treated with antibodies was performed and the change in the total amount of c-Met was measured using a Human total HGF R/c-Met ELISA KIT (R&D systems, DYC358) and analyzed.
as §6, with “In order to identify anti-cancer effects of the 3 types of antibodies having improved affinities, as prepared in Example 11, the degree of degradation of c-Met bound to the antibody was evaluated. MKN45” for “MKN45”, “and a” for “and the”, “change of” for “change in”

[6] = biological target: T1, c-Met; assay: Biacore binding affinity to c-Met antigen; settings: antibody immobilized on CM5 chip; 0.39 nM to 100 nM human c-Met
Protocol: Affinities of the 4 types of antibodies against c-Met antigen prepared in Example 7 were measured by using a Biacore (GE healthcare). About 80 to 110 RU of each antibody was immobilized on a CM5 chip, 9 different concentrations ranging from 0.39 nM to 100 nM of human c-Met protein, as an antigen, were injected at a rate of 30 ul/min to obtain kon values and koff values as shown in Table 3. Then, KD values were calculated based thereon.

T1 sequence (P08581 25-1390): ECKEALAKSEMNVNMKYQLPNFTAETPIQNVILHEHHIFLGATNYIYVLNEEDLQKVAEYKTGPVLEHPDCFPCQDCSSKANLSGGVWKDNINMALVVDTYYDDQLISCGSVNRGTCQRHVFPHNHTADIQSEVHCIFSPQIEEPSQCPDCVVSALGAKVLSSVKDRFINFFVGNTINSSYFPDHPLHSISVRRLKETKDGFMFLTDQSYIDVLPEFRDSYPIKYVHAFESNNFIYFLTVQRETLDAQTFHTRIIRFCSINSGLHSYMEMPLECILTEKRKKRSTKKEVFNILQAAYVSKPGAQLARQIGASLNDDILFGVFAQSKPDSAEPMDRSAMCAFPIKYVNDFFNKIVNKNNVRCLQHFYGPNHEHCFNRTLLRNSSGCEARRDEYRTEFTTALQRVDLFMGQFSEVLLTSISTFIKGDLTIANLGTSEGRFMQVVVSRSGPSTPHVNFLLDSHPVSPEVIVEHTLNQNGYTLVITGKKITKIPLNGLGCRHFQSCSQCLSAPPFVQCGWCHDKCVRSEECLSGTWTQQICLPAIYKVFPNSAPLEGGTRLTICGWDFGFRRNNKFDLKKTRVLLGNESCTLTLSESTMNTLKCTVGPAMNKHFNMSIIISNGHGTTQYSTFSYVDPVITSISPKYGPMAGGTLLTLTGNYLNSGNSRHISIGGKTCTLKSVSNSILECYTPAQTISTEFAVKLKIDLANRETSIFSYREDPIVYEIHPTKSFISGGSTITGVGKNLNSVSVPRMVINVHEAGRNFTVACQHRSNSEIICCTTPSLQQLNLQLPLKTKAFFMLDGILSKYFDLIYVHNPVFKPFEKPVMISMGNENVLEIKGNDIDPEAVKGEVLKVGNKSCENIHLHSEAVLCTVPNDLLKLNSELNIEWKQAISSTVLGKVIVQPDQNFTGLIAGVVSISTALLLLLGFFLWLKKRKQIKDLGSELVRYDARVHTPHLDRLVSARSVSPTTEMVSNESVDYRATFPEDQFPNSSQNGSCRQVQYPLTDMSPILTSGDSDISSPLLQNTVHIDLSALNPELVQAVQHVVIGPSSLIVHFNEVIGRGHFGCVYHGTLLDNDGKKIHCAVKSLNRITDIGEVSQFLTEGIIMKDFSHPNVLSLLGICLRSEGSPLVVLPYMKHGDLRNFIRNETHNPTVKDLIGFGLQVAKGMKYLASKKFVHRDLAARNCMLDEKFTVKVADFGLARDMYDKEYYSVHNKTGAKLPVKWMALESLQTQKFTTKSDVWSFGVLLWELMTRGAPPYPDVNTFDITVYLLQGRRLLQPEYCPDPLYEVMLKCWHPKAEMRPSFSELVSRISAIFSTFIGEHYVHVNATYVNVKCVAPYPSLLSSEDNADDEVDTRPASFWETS

| Molecule | relative cell viability [1] [%] | degree of Akt phosphorylation as share of that of huAbF46 [2] | degree of Akt phosphorylation [2] [%] | tumor growth inhibiting effect [3] | tumor growth inhibiting effect [4] | increase of degree of degradation of c-Met compared to huAbF46 [5] | koff [6] [s⁻¹] | kon [6] [M⁻¹ s⁻¹] |
| --- | --- | --- | --- | --- | --- | --- | --- | --- |
| B1 | 74 | about 49% | 15.27 | dose-dependent tumor growth inhibiting effects | dose-dependent tumor growth inhibiting effects | about 37% | – | – |
| B2 | 73 | about 49% | 15.71 | – | – | about 28% | 0.000253 | 502000 |
| B3 | 72 | – | – | – | – | about 28% | 0.00024 | 572000 |
| B4 | 66 | – | – | – | – | about 28% | 0.000143 | 419000 |
